According to a compilation of properties of binary mixtures (doi:10.1016/j.sjme.2017.07.002):
The densities may have been worked out from excess volumes.

Test: xn = mol fraction of the nth substance listed
Conditions: 100 kPa

OCC(F)(F)F + CCCC[n+]1ccn(C)c1.F[P-](F)(F)(F)(F)F
mass density [kg/m3]
Conditions	288.15 K	293.15 K	303.15 K	313.15 K	323.15 K	333.15 K
x1 = 0.109	1377	1373	1364	1355	1347	1338
x1 = 0.202	–	1373	1364	1355	1347	–
x1 = 0.304	1379	–	1365	–	1347	1338
x1 = 0.401	1380	1376	–	–	1347	1337
x1 = 0.52	1383	1377	1367	1357	1347	1336
x1 = 0.634	–	1380	–	1357	1347	1336
x1 = 0.704	1388	1382	1370	–	1347	–
x1 = 0.798	1392	1385	1372	1359	1346	–
x1 = 0.9	1397	1390	–	1361	1346	1331
x1 = 0.95	1399	1392	1376	–	1344	–
x1 = 1	1400	1391	1374	1356	1338	1319

CCCC[n+]1ccn(C)c1.F[P-](F)(F)(F)(F)F + OCC(F)(F)F
x2 = 0
Conditions	mass density [kg/m3]
288.15 K	1377
293.15 K	1372
313.15 K	1355
323.15 K	1347
333.15 K	1338
